Reference: paper PMC12040169 (PLOS Biology, 2025)
The other results are listed elsewhere or left out.

system: T1, C. trachomatis L2/434/Bu expressing GFP (CTL2-GFP); design: species or system HeLa; C. trachomatis total inclusion area by high-content imaging, normalised to DMSO; settings: total inclusion area; 28.5 h, 10 µM; inhibitor
T1 construct: L2/434/Bu GFP intracellular growth in HeLa cells
Method in brief: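 Imaging read-out: GFP inclusions and Hoechst nuclei captured by high-content imaging after fixation. Inclusion area/number = chlamydial growth; nuclei count = host cell viability. MIC calculated per earlier method.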

SMILES	% of control remaining
Cc1cc(C(=O)N2CCC(N3C(=O)OCC3(C)C)CC2)n(C(C)(C)C)n1 [CBK044233]	99.5812
COc1ccc(/C=N/NC(=O)Cc2cccn2C)cc1[N+](=O)[O-] [CBK262789]	105.173
CC(=O)Nc1cccc(C(=O)NCC(c2cccs2)N(C)C)c1 (centres unmarked) [CBK304583]	26.5284
CN1CCN(Cc2nc3c(c(=O)n(C)c(=O)n3C)n2CCc2ccccc2)CC1 [CBK269507]	88.8887
CC(C)c1cc(C(=O)N2CCCCCC2c2ccn(C)n2)no1 (centres unmarked) [CBK283048]	100.474
COc1ccc(-c2cc(NCc3cc(OC)c(OC)c(OC)c3)ncn2)cc1 [CBK091184]	121.874
CSc1nnc(-c2ccccc2O)n1CCc1ccccc1 [CBK076668]	94.3082
Nc1ncc(-c2ccsc2)nc1-c1ccc(O)cc1 [CBK115631]	74.8954
CC(C)(N)CC(=O)N1CCC(Cn2cncn2)(C2CCCCC2)CC1 [CBK136822]	62.8862
COc1ccc(-c2cc3cccnc3n2CC(=O)NC(C)(C)C)cc1 [CBK285381]	83.2274
Cc1cc(C)nc(NC(=N)NCCc2c[nH]c3ccccc23)n1 [CBK266321]	27.0161
COCc1nc2n(n1)CC(NC1CCc3ccccc3CC1)CC2 (centres unmarked) [CBK304737]	56.3245
Cc1oc2c(c1C(=O)NC(C)c1ccccn1)CCCC2 (centres unmarked) [CBK281825]	102.89
CC(Oc1ccc(F)cc1)C(=O)NCCN1CCOCC1 (centres unmarked) [CBK265508]	100.925
CC(C)(C)C(=O)N1CCC(n2nc(-c3ccco3)ccc2=O)CC1 [CBK282341]	105.032
O=S(=O)(c1ccc(Cl)c(Cl)c1)N1CCOCC1 [CBK043794]	83.3317
CN(C)c1cccc(Nc2ccc(-c3ccco3)cn2)c1 [CBK036885]	141.105
O=C(CSCc1c(Cl)cccc1Cl)NN1C(=O)c2ccccc2C1=O [CBK267800]	114.667
CC(C)(C)S(=O)(=O)c1ccc(C(=O)O)s1 [CBK260880]	81.5775
O=c1[nH]c2ccc(NC(=S)NCc3ccccc3)cc2[nH]1 [CBK296099]	71.9672
Cc1nc2ccccc2c(=O)n1CC(=O)NCc1ccccc1 [CBK072830]	101.423
O=C(CC1Nc2cccc3cccc(c23)NC1=O)Nc1ccccc1 (centres unmarked) [CBK268035]	98.2807
Cc1noc(C)c1CC(=O)N1[C@H]2CCCCCN(C)[C@@]2(C)C[C@H]1c1ccccc1 [CBK286094]	106.633
Fc1cc2c3c(c1)c1c(n3CCC2)CCNCC1 [CBK018406C]	84.5705
Cc1cnoc1-c1cc(Cl)cc(Cl)c1O [CBK015870]	91.8512
O=C(Cc1cccnc1)N1CCC(c2cccc(Cc3ccc(C(F)(F)F)cc3)n2)CC1 [CBK286223]	45.5759
CC(=O)N[C@H](C)Cn1nnc2ccccc21 [CBK282246]	94.0561

SMILES	% of control remaining
COc1ccc(CN(C)C(=O)CCc2c(C)nc3c(cnn3C(C)C)c2C)cc1 [CBK297087]	106.301
C/C(=N\NC(=O)CC1(C)OCCO1)c1oc(C)cc1C [CBK022234]	62.0192
CCCN(Cc1ccoc1)CC1CC1 [CBK018931]	88.3233
Cc1cccc(C)c1NC(=S)N1CCC2(CC1)OCCO2 [CBK016408]	50.2349
O=C(c1ccc(-c2nccnc2NCc2ccco2)cc1)N1CCOCC1 [CBK036920]	125.214
Cc1cc(C)n(C(=O)c2cccc(S(=O)(=O)N3CCCCCC3)c2)n1 [CBK266727]	108.788
CC(C)(C)NC(=O)CCn1c(-c2ccncc2)cc2cccnc21 [CBK282620]	118.404
O=C(C1CC1)N1CCc2cc(-c3cn4ccccc4n3)ccc21 [CBK285193]	94.6955
Cc1ccc2c(NC(=O)c3cc4c([nH]c3=O)CCC4)c(C)ccc2n1 [CBK281568]	109.079
O=C(N/N=C/c1c[nH]c2ccc(Br)cc12)c1ccncc1 [CBK262798]	83.5546
COc1ccc2[nH]cc(CCNC(=O)c3ccc4nc[nH]c4c3)c2c1 [CBK122714]	103.093
COCCC(=O)N1C[C@@H](c2ccccc2F)[C@@]2(CCCC(=O)N2)C1 [CBK283360]	97.398
COc1cc(/C=C2\NC(=O)N(Cc3ccc([N+](=O)[O-])cc3)C2=O)ccc1OC(C)C(=O)O (centres unmarked) [CBK265348]	106.89
COc1ccc(-c2c(O)n[nH]c2CCC2CCCC2)cc1 [CBK075126]	101.711
CCn1ncc(CN2CCC(O)(c3ccc(C)cc3)CC2)c1C [CBK282956]	87.0273
O=C(O)c1cc(NC(=O)C2CCCO2)ccc1O (centres unmarked) [CBK269815]	90.5091
Cc1ccc(C2(CN3CCN(Cc4cncn4C)CC3)CC2)cc1 [CBK283308]	103.786
Cc1ccc(-n2c(SCC(=O)N3CCCCC3)nnc2-c2cc(Br)ccc2O)c(C)c1 [CBK269070]	104.28
O=C(O)CC1(CC(=O)Nc2ccc(N3CCCC3=O)c(Cl)c2)CCCCC1 [CBK296664]	92.0816
c1nc(Sc2nccs2)cc(N2CCCC2)n1 [CBK093748]	85.6558
CN1C2C=C(N(CCc3ccccc3)C(=O)c3ccc(-c4ccccc4)cc3)CC1CC2 (centres unmarked) [CBK262596C]	87.1045
Cc1ccc(S(=O)(=O)NCCSCc2cccc(Cl)c2)cc1[N+](=O)[O-] [CBK264116]	97.6339
CC(C)c1ccc(C(C)NC(=O)Cn2cc(C(=O)NC3CCCC3)ccc2=O)cc1 (centres unmarked) [CBK286121]	89.9819
N#Cc1ccc(CNC(=O)N2CCCC(C(=O)O)C2)cc1 (centres unmarked) [CBK161352]	71.6255
CC(=O)c1ccc2[nH]c(C(=O)O)c(CCN)c2c1 [CBK260944]	90.7012
COc1ccc(S(=O)(=O)Nc2ccc(S(=O)(=O)Nc3nccs3)cc2)cc1C [CBK266011]	112.305
